Measured values from the supplement of paper PMC3334620.
Whole data set: some 33,000 sequences, median “E-score (-0.5 to 0.5)” near -0.032, cut for the highest 2% near 0.36. This is one part of the list.

target: T1, Sko1 (UniProt Q02100); test: PBM E-score (8-mer binding enrichment) (E-score (-0.5 to 0.5)); higher = stronger / more preferred TF binding; most listed sequences are background and not binding sites; settings: protein concentration: 200 nM; construct: GST-full length
T1 sequence: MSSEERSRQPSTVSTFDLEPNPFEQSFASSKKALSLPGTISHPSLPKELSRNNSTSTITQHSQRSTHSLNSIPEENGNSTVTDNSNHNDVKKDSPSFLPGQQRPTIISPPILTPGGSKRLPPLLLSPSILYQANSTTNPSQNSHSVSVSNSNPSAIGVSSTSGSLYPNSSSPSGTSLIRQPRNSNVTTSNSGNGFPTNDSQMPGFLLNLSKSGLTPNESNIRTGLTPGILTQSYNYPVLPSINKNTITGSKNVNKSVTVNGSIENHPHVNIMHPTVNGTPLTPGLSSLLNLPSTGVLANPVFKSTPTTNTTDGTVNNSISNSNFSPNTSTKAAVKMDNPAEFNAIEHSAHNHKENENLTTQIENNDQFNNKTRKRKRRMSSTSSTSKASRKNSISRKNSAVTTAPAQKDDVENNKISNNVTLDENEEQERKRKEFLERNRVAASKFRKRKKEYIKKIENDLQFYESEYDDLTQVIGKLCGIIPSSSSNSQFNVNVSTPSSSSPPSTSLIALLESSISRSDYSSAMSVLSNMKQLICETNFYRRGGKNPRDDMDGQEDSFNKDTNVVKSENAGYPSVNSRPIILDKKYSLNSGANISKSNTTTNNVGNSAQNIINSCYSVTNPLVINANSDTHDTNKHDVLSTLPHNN
Method in brief: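 Detection of bound protein used fluorescent anti-GST, with scans normalised by masliner. The proteins were GST-tagged yeast transcription factors applied at about 100-200 nM to universal all-10-mer Agilent arrays made double-stranded by primer extension. Each ungapped eight-base word, pooled with its reverse complement, was scored with an E-score from the Universal PBM Analysis Suite.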

Row | Sequence | PBM E-score
1 | AGCGGGAC | -0.235
2 | GATTACGA | 0.418
3 | GCAGTGGA | 0.00999
4 | ACACTTAG | 0.0751
5 | GATGGAGC | -0.224
6 | GACTGCCC | -0.215
7 | AAGGCTAA | -0.074
8 | AGTTCTTC | 0.123
9 | ATCTTTTG | 0.0425
10 | ACTACACG | 0.205
11 | CGCTTCAA | -0.153
12 | CCTTTCGA | -0.206
13 | GCGCTTTA | 0.056
14 | CACGGCTA | -0.00304
15 | ACGAGAGC | -0.185
16 | ACTAGCTA | 0.0605
17 | AGGGCTAA | -0.114
18 | CTATGACC | 0.212
19 | TCGGACCA | -0.135
20 | AACTATCG | 0.0542
21 | GCGAGATA | 0.084
22 | GACTAGGA | -0.0867
23 | AGTTACTA | -0.0104
24 | CGATCAAG | -0.068
25 | CTGGCCTA | -0.213

Row | Sequence | PBM E-score
26 | GAGCAACA | -0.081
27 | GCGATAAA | 0.0435
28 | CGGCGAGC | -0.144
29 | ACTGGGAG | -0.283
30 | TGACGGAA | 0.356
31 | AGAGCCCT | -0.328
32 | AGGCACTG | -0.113
33 | CGAAGACA | -0.164
34 | CCTGCAAG | -0.318
35 | GCAAATTA | 0.095
36 | CCACTGGC | -0.234
37 | AACGCGCT | -0.0383
38 | AAGTTGCC | -0.122
39 | AAGGCTCA | -0.0238
40 | ATGGCCCG | -0.194
41 | CATTCGTA | 0.317
42 | AGGGGTCA | -0.172
43 | TACTCTAA | 0.123
44 | ACATCATG | 0.393
45 | GCTGACAC | -0.053
46 | CAGGCGAA | -0.0601
47 | AGCGGGGG | -0.329
48 | AATAGTAA | 0.0315
49 | ATGTTGGC | -0.0291
50 | AAGTGACC | -0.141

Row | Sequence | PBM E-score
51 | CGAAGGCA | -0.106
52 | CTCTTGGC | -0.206
53 | CGCGTCAC | 0.41
54 | CCTTTGAC | -0.0504
55 | CCAACTTA | 0.0529
56 | GAAGCTGC | -0.153
57 | ATTTCAGG | 0.0375
58 | GCCATTGA | 0.0343
59 | AAGACTAA | 0.0405
60 | AATGTGAG | 0.0989
61 | GTTTAAAA | 0.177
62 | ATGTCACA | 0.324
63 | TGATGGAA | 0.202
64 | AGAATGCG | -0.0346
65 | AGCAGCCG | -0.0558
66 | ATCTCGCA | 0.124
67 | TCAGCCAA | -0.0544
68 | CGACTGCC | -0.211
69 | ATTAAACG | 0.315
70 | GACCTTCA | 0.0344
71 | ACAGCTCG | -0.153
72 | CTAGTAAA | 0.14
73 | ACAGGCGA | -0.266
74 | ACGAAAAC | 0.284
75 | CTGGCTTC | -0.277

Row | Sequence | PBM E-score
76 | CTATCGTC | 0.0728
77 | ATCCCAAC | 0.0739
78 | CAAAACTG | 0.0652
79 | AAAGTCGT | 0.0966
80 | AAGCGGCT | -0.163
81 | AAGGACGT | 0.324
82 | TATGGGGA | -0.119
83 | ACATGCCG | 0.191
84 | ATCATAGA | 0.205
85 | TAGCGCTA | 0.0252
86 | ATCGGTAC | 0.0971
87 | AATCGAGC | -0.0289
88 | CTGACGGA | 0.0532
89 | ACACCAAG | -0.0382
90 | CCAAGGGA | -0.279
91 | AACTTCTG | -0.0671
92 | CCGCGTAC | 0.242
93 | ACCGACGC | 0.0727
94 | CCTTCACA | -0.127
95 | CACGGCGA | -0.139
96 | ACTACTCC | -0.143
97 | GATGTATA | 0.261
98 | TCCTGGAA | -0.192
99 | CCCACACC | -0.06
100 | GGTGTTCA | 0.0658

Row | Sequence | PBM E-score
101 | AGGTGACC | -0.0978
102 | AGCAGCAT | -0.127
103 | CGAGCTGA | -0.0283
104 | ACTTTTGC | 0.185
105 | GTACCTAC | -0.0089
106 | CTCACCGA | -0.169
107 | ACCTGTTA | 0.0688
108 | AGACTAGC | -0.205
109 | CTAGCGTA | -0.0283
110 | AAGTTGCT | 0.0888
111 | CGCACTGA | 0.0222
112 | ACAGGACA | -0.0397
113 | GCTAAGGA | -0.231
114 | ACCCGCCG | 0.0253
115 | TACGAATA | 0.383
116 | CGACAGCG | -0.102
117 | GGACACTA | -0.125
118 | AGTATCGA | 0.0829
119 | ACACCCAA | -0.066
120 | AGGCATTG | -0.132
121 | ACGATCTC | -0.0967
122 | ATATCGAA | 0.208
123 | AAGAAAAC | -0.0179
124 | ATACGGAC | -0.149
125 | CCTGGTTC | -0.29

Row | Sequence | PBM E-score
126 | CTATGTCC | -0.0403
127 | AAGGTTCT | -0.0996
128 | CGCGAATA | 0.0754
129 | CAGAAATC | -0.0983
130 | CAGACGTC | 0.322
131 | ACCCACAG | -0.101
132 | CGATTTTA | 0.0927
133 | CCGTGAAC | -0.266
134 | AGAAAATC | 0.124
135 | AGATCGAT | -0.0186
136 | ACGATTTC | 0.187
137 | CAGCGGGA | -0.234
138 | ATCAAGTC | 0.0808
139 | AGTCTCTG | -0.308
140 | ACACACCG | -0.149
141 | AGGAAAAA | 0.0364
142 | GCCGCAAA | -0.0851
143 | ACCCTAAA | 0.108
144 | TATTAGAA | 0.245
145 | ACCATGGG | -0.291
146 | GCAGGTAC | -0.262
147 | GTATACTA | -0.047
148 | CCCATGGG | -0.103
149 | AGAAGCAT | -0.0822
150 | CGTAATGC | 0.454

Row | Sequence | PBM E-score
151 | TCAAGAAA | 0.148
152 | AATACCTA | 0.26
153 | ATGCTACC | -0.0649
154 | CGCTACAG | -0.232
155 | AAAGCGAT | 0.0144
156 | GAGAAAAA | 0.0977
157 | CACCAAGG | -0.289
158 | TCCGGTAA | -0.0164
159 | CAAGACGC | -0.143
160 | GGAAAAAA | 0.0497
161 | ATTCGATA | 0.151
162 | ACATTTCA | 0.0836
163 | ATAGTTCA | 0.0301
164 | ATAATGCA | 0.0309
165 | AATCCCGA | 0.105
166 | GCCGGAAC | -0.27
167 | ACACCCGG | -0.207
168 | AGTTGCAT | 0.0383
169 | CGTGGAAA | 0.214
170 | ACAGCAAA | 0.125
171 | CTTGCTCA | -0.26
172 | ACATACAT | 0.303
